# In all, about 52,000 compounds went through this assay and about 1,700 (3.3%) were called active. Cut-off read from the data, not from the text of the source: active = survival mostly below about 52% (no sharp cut-off); inactive = mostly above about 56%. The list shows a part of the results.
# Test system: Wild type
# Test: growth inhibition of S. aureus wild type versus tarO mutant, primary screen, teichoic acid synthesis inhibitors, RN4220, OD600 (AID 463173)
# Conditions: S. aureus RN4220 wild type/DeltatarO growth, OD600, 18 h, active compounds read low, screened at 18.75 µg/mL (by protocol)
row,Compound,survival
1,Cc1cc(OCC(=O)NC(Cc2c[nH]c3ccccc23)C(=O)O)ccc1Cl (stereo not drawn),inactive: 69%
2,Cc1oc2ncn(C)c(=O)c2c1C(=O)Nc1ccc(F)cc1,inactive: 83%
3,Cc1cccc(N2CCN(C(=O)c3oc(=O)c4ccccc4c3-c3ccccc3)CC2C)c1 (stereo not drawn),inactive: 71%
4,O=c1[nH]c(Nc2nc3ccccc3o2)nc2ccccc12,inactive: 91%
5,CCOc1ccc2nc(N(Cc3cccnc3)C(=O)C3CCCCC3)sc2c1,inactive: 70%
6,Cc1ccc(-c2nnc(Nc3ccccc3)c3ccccc23)cc1S(=O)(=O)N1CCOCC1,inactive: 64%
7,Cc1ccc(C2CCN(C(=O)Nc3ccc(Cl)c(Cl)c3)C2)cc1 (stereo not drawn),active: -3%
8,Cc1ccc(CNC(=O)c2ccc3c(c2)N(Cc2ccccc2Cl)C(=O)CS3)cc1,inactive: 75%
9,COc1ccc(Cn2c(CCC(=O)Nc3ccc(C)cc3C)nc3cccnc32)cc1,inactive: 69%
10,COc1cccc(CNC(=O)c2cccc(-n3c(C)nc4cccnc43)c2C)c1,inactive: 70%
11,Cc1cccc(CSc2nc(=O)c3c(n2C)NC(=O)CC3c2cc(F)cc(F)c2)c1 (stereo not drawn),inactive: 79%
12,CC(C)OCCCNC(=O)c1ccc(Cn2c(=O)c3cccn3c3cccnc32)cc1,inactive: 111%
13,Cc1oc2ccc(O)c(CN3CCN(C)CC3)c2c1C(=O)Nc1ccccc1,inactive: 87%
14,CCOc1cccc2cc(-c3cn4c(n3)sc3ccccc34)c(=O)oc12,inactive: 64%
15,O=C(CCn1c(=O)c2sccc2n(CC(=O)Nc2ccccc2)c1=O)NCc1ccccc1Cl,inactive: 97%
16,Cc1ccsc1CN(C(=O)COc1ccc(Cl)cc1)C1CCS(=O)(=O)C1 (stereo not drawn),inactive: 88%
17,COc1ccc(-c2[nH]ncc2C(=O)NCc2cccc(OC)c2)cc1,inactive: 76%
18,CC(C(=O)N1c2ccccc2CCc2ccccc21)n1nnc(-c2ccc(N(C)C)cc2)n1 (stereo not drawn),inactive: 104%
19,COc1cccc(CNCc2cccn2-c2nnc(N3CCN(c4ccccc4)CC3)s2)c1,inactive: 71%
20,Cc1ccc(CNC(=O)CSc2nnc(C)c3c(C)n(-c4ccccc4)nc23)cc1,inactive: 73%

row,Compound,survival
1,CC1CCN(S(=O)(=O)c2ccc3c(ccc(=O)n3CC(=O)NCc3ccccc3Cl)c2)CC1,inactive: 88%
2,COc1ccc(NC(=O)CSC2=Nc3ccccc3N=C(c3ccc(F)cc3)C2)cc1OC,inactive: 68%
3,CCN(C(=O)CCNC(=O)Cn1cnc2ccccc2c1=O)c1cc(OC)ccc1OC,inactive: 75%
4,Cc1ccc2c(c1)c1c(c(=O)n(-c3ccccc3C)c(=O)n1CC(=O)c1ccc(Cl)cc1)n2C,inactive: 73%
5,O=C1c2cccc3c(N4CCCCC4)ccc(c23)C(=O)N1c1ccccn1,inactive: 100%
6,COCCNC(=O)Nc1ccc2c(c1)nc(C)n2C,inactive: 87%
7,CN(C)c1ccc(NC(=O)Cn2nnc3sc4c(c3c2=O)CCC(C(C)(C)C)C4)cc1 (stereo not drawn),inactive: 90%
8,O=S(=O)(c1ccc(Cl)cc1)c1nnn2c1nc(NC1CCCCC1)c1sccc12,inactive: 72%
9,CCC1CN(C(=O)N2CCC(C(=O)NCc3cc(OC)c(OC)c(OC)c3)CC2)c2ccccc2O1 (stereo not drawn),inactive: 87%
10,Cc1cc(S(=O)(=O)N(C)Cc2ccccc2)ccc1-n1cnnn1,inactive: 104%
11,CN(C)c1ccc(CNC(=O)CN2C(=O)CSc3ccc(S(=O)(=O)N4CCCC4)cc32)cc1,inactive: 94%
12,CN(C)CC1(c2ccccc2)CCCC1,inactive: 104%
13,O=C(Nc1ccc2c(c1)OCCO2)C1CCCN(S(=O)(=O)Cc2ccccc2)C1 (stereo not drawn),inactive: 105%
14,O=C(Nc1ccc(O)c(-c2nc3ccccc3o2)c1)c1ccc(Br)cc1,inactive: 88%
15,CN(C)c1cccc(C(=O)Nc2nc3ccc(S(=O)(=O)N4CCCC4)cc3s2)c1,inactive: 131%
16,CCSc1ncc(Cl)c(C(=O)Nc2nc3ccc(Cl)cc3s2)n1,inactive: 107%
17,Cc1cccc(NC(=O)c2oc3ccccc3c2NC(=O)c2cc(=O)c3ccc(C)cc3o2)c1,inactive: 77%
18,Cc1cc(NC(=O)CCc2nc3cccnc3n2Cc2cccs2)ccc1Br,inactive: 71%
19,Cc1ccc(-n2c(=O)c3c(cnn3C)n(Cc3ccc(Cl)cc3)c2=O)cc1,inactive: 139%
20,CCOc1cc(C(=O)Nc2ccc(NC(=O)c3cc4ccccc4o3)c(OC)c2)cc(OCC)c1OCC,inactive: 132%

row,Compound,survival
1,CCOc1ccc(CNC(=O)c2ccc3[nH]c(C)c(C)c3c2)cc1OC,inactive: 80%
2,CCc1ccc(NC(=O)N(Cc2c[nH]c3ccccc23)C2CCCCC2)cc1,inactive: 93%
3,CCc1ccccc1NC(=O)CSc1nnc(-c2ccc(OC)cc2)s1,inactive: 87%
4,CC(=O)Nc1ccc(NC(=O)C2CCN(S(=O)(=O)c3ccc4c(c3)CCCC(=O)N4)CC2)cc1,inactive: 87%
5,Cc1ccc(NS(=O)(=O)c2cc(-c3cc(C)no3)ccc2C)c(Cl)c1,inactive: 69%
6,CCOc1ccc2nc(N3CCCC(C(=O)Nc4cc(C)ccc4C)C3)sc2c1 (stereo not drawn),inactive: 125%
7,CC(=O)N(C1=NCCCCS1)c1ccccc1,inactive: 110%
8,Cc1ccc(NC(=O)Nc2c[nH]c(=O)[nH]c2=O)c(Cl)c1,inactive: 74%
9,COCCNC(=O)CCCn1c(SCC(=O)c2ccc(Br)cc2)nc2c(sc3ccccc32)c1=O,inactive: 84%
10,CCN(CC)N=Nc1ccc(NC(C)=O)cc1,inactive: 117%
11,OCCNc1ccc(Cl)cc1,inactive: 92%
12,Cc1cc2c(cc3c(SCc4ccc(Cl)cc4)nncn32)o1,inactive: 84%
13,COc1ccc(C)cc1NC(=O)c1cnc2ccc(C)cn2c1=O,inactive: 90%
14,O=c1c2ccccc2n(Cc2c(F)cccc2Cl)c(=O)n1CCc1ccccc1,inactive: 83%
15,CCOc1cc(C2c3c(oc4ccccc4c3=O)C(=O)N2Cc2ccc(OC)cc2)ccc1O (stereo not drawn),inactive: 148%
16,Cc1ccn2c(=O)cc(COc3ccc(NC(=O)COc4ccc(C)c(C)c4)cc3)nc2c1,inactive: 75%
17,Cc1ccc(OCC(=O)NCC(c2ccc(Cl)cc2)N2CCOCC2)cc1C (stereo not drawn),inactive: 70%
18,O=C(CCCCn1c(=O)c2ccccc2n(Cc2cccc(F)c2)c1=O)NCc1ccc2c(c1)OCO2,inactive: 107%

# Reference: PubChem BioAssay AID463173 (ICCB-Longwood Screening Facility, Harvard Medical School, 2010)
